Source: PubChem BioAssay AID624418 (National Center for Advancing Translational Sciences (NCATS), 2012)
Out of some 410,000 compounds screened, about 530 (0.13%) were called active. This list was built around the results that the source calls inconclusive (neither active nor inactive); the mix of calls is not that of the screen. The call rests on the fitted dose curve; in most records, active means well fitted inhibition curve with a large enough effect; inconclusive means small, poorly fitted or top-dose-only effect, or another doubt; inactive means no such curve, though single readings can be large or run the other way. Potencies beside an inconclusive call are fits to weak or partial responses and may not hold up.
On the % scale 0 is the no-effect control and ±100 the full control effect; potency means the concentration at half of the fitted maximal effect.

Assay: qHTS of GLP-1 Receptor Inverse Agonists: Cytotox Screen
Details: HEK293 cAMP-luciferase reporter cells, luminescence, 24 h; activity change, negative = inhibition: at 38.3 µM (top of the series) unless noted
How it was run: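 MLSMR compounds, 24 hr on cells at 37 deg C/5% CO2; luminescence after luciferase reagent (12 min RT). Inhibition counted as the undesired cytotoxic outcome.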
With `Cc1c(C)c2ccc(O[C@@H]3O[C@H](CO)[C@H](O)[C@H](O)[C@H]3O)cc2oc1=O` the Potency was inconclusive: 28.2 µM [inhibitor, single point]. With `COc1ccc(-c2nc(Cn3c(SCc4cccc(Cl)c4)nc4ccncc43)c(C)o2)cc1` the Potency was inconclusive: 28.2 µM [inhibitor, single point]. With `Cc1ccc(C(=O)C(C)OC(=O)Cc2n[nH]c(=O)c3ccccc23)cc1` (configuration not stated) the Potency was inconclusive: 22.4 µM [inhibitor, partial curve, poor fit]. With `CCOC(=O)c1c(S(=O)(=O)N2CCCC(C(=O)N(C)Cc3ccccc3)C2)c(C)n(C)c1C` (configuration not stated) the “activity change, negative = inhibition” value was inactive: 9.7%. With `Cc1nn(C(=O)c2ccccc2)c(C)c1Sc1ccc(Cl)cc1` the Potency was inconclusive: 25.1 µM [inhibitor, single point]. With `COc1ccc(Br)cc1/C=N/NC(=O)Cn1nnnc1N` the Potency was inconclusive: 22.4 µM [inhibitor, single point]. With `CCNc1nc(SCCOc2ccc(Br)cc2)nc(N(C)C)n1` the “activity change, negative = inhibition” value was inactive: 8.39%. With `COc1ccc(CNC(=O)[C@@H](NC(=O)C2CCN(C(=O)[C@@H](N)CCSC)CC2)C(C)C)cc1` the Potency was inconclusive: 7.94 µM [inhibitor, partial curve, poor fit]. With `Cc1cc(NS(=O)(=O)c2ccc(NC(=O)c3ccccc3F)cc2)nc(C)n1` the “activity change, negative = inhibition” value was inactive: 0.705%. With `Cc1ccc(-c2cc(C(=O)N/N=C/C=C/c3ccccc3)n[nH]2)s1` the “activity change, negative = inhibition” value was inactive: -23.8%. For `O=C(N/N=C/C(Cl)=C/c1ccccc1)c1ccccn1`, the activity change, negative = inhibition was inactive: 10.9% [at 0.307 µM]. In the case of `Nc1nc(SCc2ccc(Cl)cc2Cl)c2ncn(C3OC(CO)C(O)C3O)c2n1` (configuration not stated), the “activity change, negative = inhibition” value is reported as inactive: -14.6%. With `CN(C)c1ccc(/C=N\Nc2ccccn2)cc1` the Potency was inconclusive: 28.2 µM [inhibitor, single point]. With `O=C(NC1CCCCC1)c1ccc(-c2ccccc2)cc1` the “activity change, negative = inhibition” value was inactive: -2.93%. For `O=C(NCCCNc1ccnc2cc(Cl)ccc12)c1ccccc1F`, the Potency was inconclusive: 31.6 µM [inhibitor, single point]. In the case of `Oc1[nH]c2ccc(Br)cc2c1N=NC(=S)Nc1ccc(F)cc1`, the Potency is reported as inconclusive: 2.51 µM [inhibitor, partial curve, poor fit]. In the case of `COc1cc(/C=C2\SC(=S)N(NS(=O)(=O)c3ccccc3)C2=O)ccc1O`, the Potency is reported as inconclusive: 22.4 µM [inhibitor, single point]. For `CC(C)(C)c1cc(NCc2ccccn2)n2ncc(-c3ccccc3)c2n1`, the Potency was inconclusive: 28.2 µM [inhibitor, single point]. In the case of `Cc1[nH][nH]c(=O)c1C(c1ccc(O)c(Br)c1)c1c(C)[nH][nH]c1=O`, the Potency is reported as inconclusive: 14.1 µM [inhibitor, single point]. In the case of `O=C(CSCc1ccco1)Nc1cc(C(F)(F)F)ccc1N1CCOCC1`, the “activity change, negative = inhibition” value is reported as inactive: 3.4%. In the case of `CC(C)C(NC(=O)CNC(=O)OC(C)(C)C)C(=O)NCc1ccc(Cl)cc1` (configuration not stated), the Potency is reported as inconclusive: 12.6 µM [inhibitor, single point]. For `O=P(CCCCCCCCCP(=O)(c1ccccc1)c1ccccc1)(c1ccccc1)c1ccccc1`, the Potency was inconclusive: 10 µM [inhibitor, single point]. For `CCCN1/C(=C2/SC(=S)N(CC)C2=O)C=Cc2ccccc21`, the Potency was inconclusive: 8.91 µM [inhibitor, partial curve]. For `COc1ccc(C)cc1Nc1n[n+](-c2ccccc2)c(-c2c(OC)ccc3ccccc23)s1`, the Potency was inconclusive: 12.6 µM [inhibitor, single point]. In the case of `COc1ccc(C)cc1NC(=O)CSc1nc2scc(C)c2c(=O)[nH]1`, the Potency is reported as inconclusive: 7.94 µM [inhibitor, partial curve, poor fit]. For `CC1=CC(=C(C#N)C#N)c2ccccc2N1C`, the Potency was inconclusive: 8.91 µM [inhibitor, partial curve, poor fit]. For `Cc1cc(/C=C(/C#N)c2nc3ccccc3[nH]2)c(C)n1-c1ccccc1C(=O)O`, the Potency was inconclusive: 25.1 µM [inhibitor, single point]. With `CN(C(=O)CN1CCN(c2ccc([N+](=O)[O-])cn2)CC1)c1ccccc1` the Potency was inconclusive: 11.2 µM [inhibitor, partial curve, poor fit]. For `CC(=O)N1CCN(c2nnc(-c3ccc(C)cc3)c3ccccc23)CC1`, the “activity change, negative = inhibition” value was inactive: -4.85%. With `COc1ccc(N/N=C(\C#N)C(=N)N2CCOCC2)cc1` the Potency was inconclusive: 8.91 µM [inhibitor, partial curve]. In the case of `O=C(Nc1c(C(=O)c2ccccc2)oc2ccccc12)c1cc(-c2ccccc2O)n[nH]1`, the Potency is reported as inconclusive: 28.2 µM [inhibitor, single point]. With `O=C(Nc1nnc(C2CC2)s1)C1Cc2ccccc2CN1S(=O)(=O)c1cccs1` (configuration not stated) the Potency was inconclusive: 28.2 µM [inhibitor, single point]. In the case of `O=C(CSc1ccccn1)Nc1ccc2c(c1)OCO2`, the “activity change, negative = inhibition” value is reported as inactive: 0%. For `COC(=O)COc1cccc2c(=O)n(CC(=O)NCc3ccccc3)ccc12`, the Potency was inconclusive: 28.2 µM [inhibitor, single point]. With `O=C1c2ccccc2C(=O)c2c1cccc2N1CCCC1` the Potency was inconclusive: 28.2 µM [inhibitor, single point]. In the case of `CC(C)NOC(=O)c1ccc(Cl)cc1`, the “activity change, negative = inhibition” value is reported as inactive: 2.66%. With `O=C(NCc1ccc(Cl)cc1)C1C2C=CC3(CN(Cc4cccnc4)C(=O)C13)O2` (configuration not stated) the “activity change, negative = inhibition” value was inactive: 6.83%. In the case of `CCOc1ccc(S(=O)(=O)Nc2ccc(C(=O)NCC3(N4CCCCC4)CCCCC3)cc2)cc1`, the Potency is reported as inconclusive: 11.2 µM [inhibitor, single point]. In the case of `Cc1cccc(C(=O)N[C@H](C(=O)Nc2ncc(C)s2)C(C)C)c1`, the Potency is reported as inconclusive: 10 µM [inhibitor, partial curve]. For `NS(=O)(=O)c1ccc(N2C(=O)C3CC=CCC3C2=O)cc1` (configuration not stated), the “activity change, negative = inhibition” value was inactive: -4.46%. In the case of `COc1cnc(-c2ccccn2)nc1N(C)C`, the Potency is reported as inconclusive: 7.94 µM [inhibitor, partial curve, poor fit]. In the case of `CCN(CC(=O)Nc1ccccc1OC)C(=O)c1ccc(NS(=O)(=O)c2ccc(C(C)=O)cc2)cc1`, the Potency is reported as inconclusive: 6.31 µM [inhibitor, partial curve, poor fit]. With `COC(=O)Cc1ccc(NC(=S)NCc2ccccc2OC)cc1` the “activity change, negative = inhibition” value was inactive: -0.676%. In the case of `S=C1Cc2ccccc2C(c2ccc(Cl)cc2)N1` (configuration not stated), the “activity change, negative = inhibition” value is reported as inactive: 6.77%. With `N#CC(=C(O)COC(=O)c1ccc2c(c1)OCCO2)c1nc2ccccc2[nH]1` the Potency was inconclusive: 28.2 µM [inhibitor, single point]. For `Cc1cccc(NC(=S)NCCc2ccccc2)c1C`, the Potency was inconclusive: 28.2 µM [inhibitor, single point]. In the case of `COc1cc(NC(=O)COC(=O)[C@@H]2CCCN2S(=O)(=O)c2ccc(Cl)cc2)cc(OC)c1OC`, the “activity change, negative = inhibition” value is reported as inactive: -9.12%. For `COCCNC(=O)C1Cc2c(ccc3ccccc23)O1` (configuration not stated), the Potency was inconclusive: 28.2 µM [inhibitor, single point]. For `Cc1cccc(-c2nnn3c2nc(NCCc2ccc(S(N)(=O)=O)cc2)c2cc(Cl)ccc23)c1`, the “activity change, negative = inhibition” value was inactive: -1.43%. With `C/C(=N\NC(=O)c1c(Cl)c(C)nn1C)c1cccc(NC(=O)COc2ccccc2)c1` the “activity change, negative = inhibition” value was inactive: 5.73%. In the case of `COc1cc(OC)cc(C(=O)Nc2nc3ccccc3[nH]2)c1`, the Potency is reported as inconclusive: 28.2 µM [inhibitor, single point]. For `COc1ccccc1CCC(=O)Nc1nccs1`, the activity change, negative = inhibition was inconclusive: -30.7% [inhibitor]. With `CCN1C(=NCCOC)N[C@@H](c2ccccc2)[C@H](C(=O)OC)[C@H]1C` the Potency was inconclusive: 28.2 µM [inhibitor, single point]. In the case of `COC(=O)c1cc2ccccc2c(-c2c(O)ccc3ccccc23)c1O`, the Potency is reported as inconclusive: 11.2 µM [inhibitor, partial curve, poor fit]. In the case of `COc1ccccc1NC(=O)Nc1nc(CC(=O)NCc2ccc(F)cc2)cs1`, the Potency is reported as inconclusive: 12.6 µM [inhibitor, single point]. In the case of `CCN(CC)C(=O)c1ccc(-c2nnc(Nc3ccc(C(=O)N(C)C)cc3)c3ccccc23)cc1`, the Potency is reported as inconclusive: 12.6 µM [inhibitor, single point]. With `COc1cccc2sc(N(CCN(C)C)C(=O)c3ccc4c(c3)CCCC4)nc12` the Potency was inconclusive: 11.2 µM [inhibitor, single point]. With `Cc1cccc(NC(=S)Nc2ccc(Cl)c(Cl)c2)c1` the Potency was inconclusive: 22.4 µM [inhibitor, single point]. With `CC1=C(C)/C(=N/OC(=O)c2cccc([N+](=O)[O-])c2)C=CC1=O` the Potency was inconclusive: 12.6 µM [inhibitor, single point]. With `CCOC(=O)C1=C(O)c2ccccc2C(=O)/C1=C\c1ccc(CC)cc1` the Potency was inconclusive: 28.2 µM [inhibitor, single point]. With `CCOC(=O)c1ccc(NC(=S)NNC(C)(C)C)cc1` the Potency was inconclusive: 3.98 µM [inhibitor, full curve, poor fit]. In the case of `CCOC(=O)c1ccccc1NC(=O)c1cc2c(=O)oc3ccc(C)cc3c2s1`, the “activity change, negative = inhibition” value is reported as inactive: 4.81%. In the case of `COC(=O)CS(=O)(=O)c1nnc([C@H](Cc2ccccc2)NC(=O)OC(C)(C)C)o1`, the Potency is reported as inconclusive: 28.2 µM [inhibitor, single point]. In the case of `O=C1c2ccccc2-c2cc(Br)ccc2NC1O` (configuration not stated), the Potency is reported as inconclusive: 22.4 µM [inhibitor, single point]. For `N#CC1=C(N)N=C(SCc2cccc3ccccc23)C(C(N)=O)C12CCCCC2` (configuration not stated), the Potency was inconclusive: 12.6 µM [inhibitor, single point]. With `CC(C)n1c(CN(C)c2ccccc2)nc2ccccc21` the Potency was inconclusive: 6.31 µM [inhibitor, single point]. For `Cc1ccccc1CCNC(=O)c1ccc2c(c1)c(C)c(C)n2Cc1ccccc1`, the “activity change, negative = inhibition” value was inactive: 4.4%.
